Laboratory results taken from the supplement of paper PMC12355420.
Structures can show the parent of a compound that is named as a salt. The list shows a part of the results. Many values rest on one well or one pass, so single values are uncertain.
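Note: primary screen of an FDA-approved drug library in HeLa reporter cells in 96-well format, CellMask signal normalized to DMSO-treated wells set as 1, under 0.5 deemed highly cytotoxic.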

Each compound was assayed on HeLa VPS33A reporter cells (assay: relative cell viability (CellMask signal) vs DMSO (fraction of DMSO); HeLa model of a glycosaminoglycan (GAG) storage disease; KI is knock-in and KO knock-out; SDC1 is syndecan 1; higher = less cytotoxic). Details: 50 µM; 24 h.
For `Nc1ccc2cc3ccc(N)cc3nc2c1` [Proflavine Hemisulfate], the relative cell viability was 0.0151. For `Clc1ccc(COC(Cn2ccnc2)c2ccc(Cl)cc2Cl)cc1` (stereo unspecified) [Econazole nitrate], the relative cell viability was 0.00434. With `O=C(O)CSc1nnc(Br)n1-c1ccc(C2CC2)c2ccccc12` [Lesinurad] the relative cell viability was 0.413. Compound `O=C1c2c(O)ccc(O)c2C(=O)c2c(NCCNCCO)ccc(NCCNCCO)c21` [Mitoxantrone HCl] has a relative cell viability of 0.00551. `CC(CN(C)C)CN1c2ccccc2CCc2ccccc21` (stereo unspecified) [Trimipramine (maleate)] showed a relative cell viability of 0.0149. Compound `Clc1ccccc1C(c1ccccc1)(c1ccccc1)n1ccnc1` [Clotrimazole] has a relative cell viability of 0.00394. With `Cc1c(O)cccc1C(=O)N[C@@H](CSc1ccccc1)[C@H](O)CN1C[C@H]2CCCC[C@H]2C[C@H]1C(=O)NC(C)(C)C` [Nelfinavir Mesylate] the relative cell viability was 0.0196. Work on `COC(=O)N[C@H](C(=O)N1CCC[C@H]1c1ncc(-c2ccc(-c3ccc(-c4cnc([C@@H]5CCCN5C(=O)[C@@H](NC(=O)OC)C(C)C)[nH]4)cc3)cc2)[nH]1)C(C)C` yielded a relative cell viability of 0.0709. In the case of `NC(=O)N1CCC(CC(=O)N2CCC([C@H]3c4ncc(Br)cc4CCc4cc(Cl)cc(Br)c43)CC2)CC1` [Lonafarnib], the relative cell viability is reported as 0.00872. `CC[C@]1(O)C[C@@H]2CN(CCc3c([nH]c4ccccc34)[C@@](C(=O)OC)(c3cc4c(cc3OC)N(C)[C@H]3[C@@](O)(C(=O)OC)[C@H](OC(C)=O)[C@]5(CC)C=CCN6CC[C@]43[C@@H]65)C2)C1` [vinblastine] gave a relative cell viability of 0.258. `COc1cc2ncnc(Nc3ccc(F)c(Cl)c3)c2cc1OCCCN1CCOCC1` [Gefitinib hydrochloride] showed a relative cell viability of 0.00808.
